Results on 22 molecules are retold here after PMC12136788.

B1: ENSG00000170113:stop:overlap|stop_codon|ENSG00000170113|stop_codon|NA|stop_codon (ssRNA)
RNA: GGGAGUUCUACAGUCCGACGAUCUGUUCAAAGAGUUCAAUUUCAACCUUGGGGAGAUGAACAAAUCUAAUAUGAAAACAGACUAGAUUGCAAUAGGAGCUUGGAUGGUUCGAGGAAUAGGCAUUGGAGGUGGUUUCUGGCCGUCAACAGAGGAUUGAGCAUCA
B2: chr12:7652437:7652835:-|CDS|ENSG00000111701|control|control|control (ssRNA)
RNA: GGGAGUUCUACAGUCCGACGAUCCUCCCAGGCUAUUAGAGAGUUUCUGAGUCGGCACCCUGGUGUGACUCUAGUGAUCUACGUAGCUCGGCUUUUUUGGCACAUGGAUCAACAAAAUCGGCAAGGUCUCAGGGACCUUGUUAACAACAGAGGAUUGAGCAUCA
B3: chr11:61403655:61403707:-|3pUTR|ENSG00000149532|msi1_unk|FALSE|overlapping (ssRNA)
RNA: GGGAGUUCUACAGUCCGACGAUCUGAAGUAACCAGGAGGAAUGGGGAAAGAAGCAAGUUGGGCAGGAUAUGGCCUACUUCCAUAGGCUUUUCUUUUUUCAGGUUUGAUGUAAGCAUGGGCUUACAUCCCCCAGGUACAUACUUCAACAGAGGAUUGAGCAUCA
B4: chr17:4948375:4948459:-|5pUTR_CDS|ENSG00000108518|msi1_unk|total|mutant (ssRNA)
RNA: GGGAGUUCUACAGUCCGACGAUCAGCCGAGGCAGCUCGAGCCCAGUCCGCGGCCCCAGCAGCAGCGCCGAGAGCAGCCCCAGCCGCAGCGCCAUGGCCGGGUGGAACGCCUACAUCGACAACCUCAUGGCGGACGGGACCUGUCAACAGAGGAUUGAGCAUCA
B5: chr17:1004907:1005008:-|3pUTR|ENSG00000159842|msi1|FALSE|unique (ssRNA)
RNA: GGGAGUUCUACAGUCCGACGAUCAAGAGGGGCCAGGCUUCCUGGAGGGUGACUGAUGUGGCCGAAGCAGGUGUCCAGGCAGGUAGGCUGCAGCCAGGAGCUCCCUGGCACCGCAGGACCUCGUGGUACUCUUGCCUUAGAUUUCAACAGAGGAUUGAGCAUCA
B6: ENSG00000011677:stop:overlap|stop_codon|ENSG00000011677|stop_codon|NA|stop_codon (ssRNA)
RNA: GGGAGUUCUACAGUCCGACGAUCUCUAUUGGGCCACAUAUGUCAACCGGGAGUCAGCUAUCAAGGGCAUGAUCCGCAAACAGUAGAUAGUGGUGGCAGUGCAGCAACCAGAGCACUGUAUACCCCGUGAAGCAUCCAGGCACCCAACAGAGGAUUGAGCAUCA
B7: chr13:30205178:30205279:-|3pUTR|ENSG00000102781|msi1|FALSE|bound_elsewhere (ssRNA)
RNA: GGGAGUUCUACAGUCCGACGAUCUUGGCAGUUUCUCUAACGACUCUGUAUAGCUUCUGGCUUCUACUACUGAAACAAGAGUUUAGAUCACUGAUGGAGAGGCAUAGUAAUCUGUUUGUGCUUUGGAAAAAUAUAUAAAAGUUUCAACAGAGGAUUGAGCAUCA
B8: chr12:53253816:53253925:+|CDS|ENSG00000182544|unk|FALSE|unique (ssRNA)
RNA: GGGAGUUCUACAGUCCGACGAUCUCUCUUCAUGUUGACUUUCUCUACCAGCCCAGGCCAGGAGAGUCCGGUGGAGUCCUUCAUAGCCUUUCUACUUAUUGAGUUGGCUUGUGGAUUAUACUUUCCCAGCAUGAGCUUCCUACGCAACAGAGGAUUGAGCAUCA
B9: chr6:158982484:158982688:-|CDS|ENSG00000130363|control|control|control (ssRNA)
RNA: GGGAGUUCUACAGUCCGACGAUCGAAGAAGAAGAGCUGGCUAACCUGCGGGCCAGUCAGCGUGAGUAUGAAGAACUACGGAAUAGUGAACGUGCUGAAGUUCAACGACUUGAAGAGCAAGAGAGGCGACACCGAGAAGAAAAACAACAGAGGAUUGAGCAUCA
B10: chr16:70157515:70157662:+|3pUTR|ENSG00000090857|msi1|FALSE|unique (ssRNA)
RNA: GGGAGUUCUACAGUCCGACGAUCCUCCCUAUAAUUUUCUUCAUCUCUUGCUAAUCUCUAUAAUAAGGUUGCUUUUUCUUUCUUAGUUGAGUAAACAAGUAAGCCACAGUGUUUGAAAGGGAAAAACCAUAUUGCCUUGUGUGUCAACAGAGGAUUGAGCAUCA
B11: chr11:47420279:47420382:-|CDS|ENSG00000165916|unk|FALSE|unique (ssRNA)
RNA: GGGAGUUCUACAGUCCGACGAUCAAACAGGGUGGACAUCCUGGACCCCGCCCUCCUCCGCUCGGGCCGCCUUGACCGCAAGAUAGAGUUCCCGAUGCCCAAUGAGGAGGCCCGGGCCAGAAUCAUGCAGAUCCACUCCCGAAACAACAGAGGAUUGAGCAUCA
B12: ENSG00000136451:be:win_1851|3pUTR|ENSG00000136451|bound_else_gene|NA|bound_elsewhere_windowed (ssRNA)
RNA: GGGAGUUCUACAGUCCGACGAUCUCAUAAGUAGAACCCACUUCAAAAUAAAAAAACAGCAUUACUAUUUCUAAUCCCAAGGAAUCACUUUAUUGUAAACACUAGCAGAACUCUUCUCCCUAUACAAGGUGGAUGGCUGAUUUUCAACAGAGGAUUGAGCAUCA
B13: chr15:48342169:48342270:+|3pUTR|ENSG00000128951|msi1_unk|total|mutant (ssRNA)
RNA: GGGAGUUCUACAGUCCGACGAUCAAAAAAAAAAAAAGUUUUUGCUUCAAGUGUUUUGGUGUUUUGCACUUCUGUAAACUUACCCGCUUUACCUUCUAAAAGUACUGCAUUUUUUACUUUUUUUUAUGAUCAAGGAAAAGAUCACAACAGAGGAUUGAGCAUCA
B14: ENSG00000198589:be:win_4151|CDS|ENSG00000198589|bound_else_gene|NA|bound_elsewhere_windowed (ssRNA)
RNA: GGGAGUUCUACAGUCCGACGAUCCGGCUACACAUGAACUGGAAAAUAUUGAACCUACUCAAGGCCUUUCAAUAGAAGCCUCUGUGACAUUUUUGCAGAGGCUAAUUAGCCUUGUGGAUGUGCUUAUAUUUGCAAGUUCUCUUGCAACAGAGGAUUGAGCAUCA
B15: chr5:69350983:69352230:-|three_prime_utr|ENSG00000085231|control|control|control (ssRNA)
RNA: GGGAGUUCUACAGUCCGACGAUCCACAGCAUCCUACAAGGAAGAAAUCGUGCAUCAGCUGCCCAGUAAUAAACCAGAAGAGCUAGAAAAUAAUGUAGAUCAGAUCUUGAAAUGGAUUGAGCAGUGGAUCAAAGAUCAUAACUCCAACAGAGGAUUGAGCAUCA
B16: ENSG00000149428:stop:overlap|stop_codon|ENSG00000149428|stop_codon|NA|stop_codon (ssRNA)
RNA: GGGAGUUCUACAGUCCGACGAUCGCUCCUGCAGUUCUCACCUGAGGAAGUGUUGGGCAUGGUUCUCAAUUAUUCUCGUUCUCUAGCUGAAGAUUUUGCAGAGCAGCCCAUCAAGGAUGCAGUGAUCACCGUGCCAGUCUUCUUCAACAGAGGAUUGAGCAUCA
B17: chrX:149581652:149582231:-|three_prime_utr|ENSG00000267978|control|control|control (ssRNA)
RNA: GGGAGUUCUACAGUCCGACGAUCCAAAUGUUCUUUUAAUGGUCAGUUUAAUGAACUUCACCAUCGAAGUUAAUGAAUGACAGUAGUCACACAUAUUGCUGUUUAUGUUAUUUAGGAGUAAGAUUCUUGCUUUUGAGUCACAUGCAACAGAGGAUUGAGCAUCA
B18: ENSG00000104231:stop:overlap|stop_codon|ENSG00000104231|stop_codon|NA|stop_codon (ssRNA)
RNA: GGGAGUUCUACAGUCCGACGAUCUCUUGGAAUAUCUUAAUGAUGAAGAACAAUUCUGUAAAAAUGUUGAAUCUUACUUGGAAUAGUCAUUCAAAGAUUCAAGUCAGAAAUCACAGGGAAAAUUCUAUUACAUGUUUAAGUCCACAACAGAGGAUUGAGCAUCA
B19: chr8:54147534:54147638:+|CDS|ENSG00000137547|unk|FALSE|unique (ssRNA)
RNA: GGGAGUUCUACAGUCCGACGAUCAAGUAUGGUUAUAUCUUACCUGAUAUCACUAAAGAUGAACUCUUCAAAAUGCUCUGUACUAGGAAGGAUCCAAGGCAGAUUUUCUUUGGUCUUGCUCCAGGAUGGGUGGUGAAUAUGGCCCAACAGAGGAUUGAGCAUCA
B20: ENSG00000198589:be:win_5751|CDS|ENSG00000198589|bound_else_gene|NA|bound_elsewhere_windowed (ssRNA)
RNA: GGGAGUUCUACAGUCCGACGAUCUGAGUCACUGUGUGCCCAGUAUUCUGCAGACAAACGAGAAGAUGAGAAGAUGUGUGAUCAUUUGAUAAGAGCAGCAAAAUAUCGUGACCACGUGACAGCAACUCAACUAAUCCAGAAAAUCAACAGAGGAUUGAGCAUCA
B21: chr1:168200228:168200338:+|3pUTR|ENSG00000143155|unk|FALSE|unique (ssRNA)
RNA: GGGAGUUCUACAGUCCGACGAUCUAUUUUCUGGAGUUAAAUUUGGAUGAUUUCUAAAUUAUCACAAAGUGGGACCUCAGCAGUAGUGAUGUGUGUGUCUCAUGAGCAGUGAGCACAGUCUGCAUUCAUCAUGAAACACUAUCUCAACAGAGGAUUGAGCAUCA
B22: chr12:98549714:98549829:+|3pUTR|ENSG00000120802|unk|total|mutant (ssRNA)
RNA: GGGAGUUCUACAGUCCGACGAUCGAAGAUGUAUAUUCCGACCAGCACACAAUUUUGAUUUCAAUCCGCCUUAUUCUAAUAUUCCGCUUUCCGAUCUUUCAUACACAUUUUCACGUACUUUGCAAUUGAGACCAGAAAGACUUGCAACAGAGGAUUGAGCAUCA

The other results are listed elsewhere or left out.

For this assay, the target named is MSI1 full-length (mouse, UniProt Q61474 1-362). Put plainly: nsRBNS (natural sequence RNA bind-n-seq); RBNS binding buffer (assumed for nsRBNS): 25 mM Tris pH 7.5, 150 mM KCl, 3 mM MgCl2, 0.01% Triton X-100, 500 ug/ml BSA, 20 U/ml SUPERase-In, 4 C; UNK is unkempt and MSI1 is Musashi-1; names of the RNAs are library labels; protein concentration not given here; high values mean tight binding.
UniProt Q61474, sequence (Q61474 whole entry): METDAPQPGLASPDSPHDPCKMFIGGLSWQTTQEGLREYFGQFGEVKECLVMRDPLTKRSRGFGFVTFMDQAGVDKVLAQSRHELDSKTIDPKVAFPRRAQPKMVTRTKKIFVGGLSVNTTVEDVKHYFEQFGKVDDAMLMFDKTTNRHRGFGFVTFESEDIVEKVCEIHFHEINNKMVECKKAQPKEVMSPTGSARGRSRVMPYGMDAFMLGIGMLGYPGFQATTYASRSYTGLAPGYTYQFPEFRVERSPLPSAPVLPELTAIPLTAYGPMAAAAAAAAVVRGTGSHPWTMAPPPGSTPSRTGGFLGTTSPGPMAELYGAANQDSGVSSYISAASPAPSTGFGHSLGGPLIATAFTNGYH
Regarding B1, the binding signal came to 0.642 enrichment R.

Molecule B2 came in with a binding signal of 0.299 enrichment R.

Molecule B3 registered a binding signal of 0.452 enrichment R.

In the case of B4, the binding signal amounted to 0.583 enrichment R.

As for B5, the binding signal was 0.628 enrichment R.

Molecule B6 yielded a binding signal of 0.512 enrichment R.

In the case of B7, the binding signal was 2.13 enrichment R.

B8 showed a binding signal of 0.503 enrichment R.

B9: the binding signal was 0.421 enrichment R.

Turning to B10, the binding signal was determined as 2.4 enrichment R.

In turn, B11 returned a binding signal of 0.568 enrichment R.

Molecule B12 yielded a binding signal of 2.65 enrichment R.

The molecule B13 returned a binding signal of 0.24 enrichment R.

In turn, B14 gave a binding signal of 0.181 enrichment R.

B15 showed a binding signal of 3.05 enrichment R.

Take B16: the binding signal came out at 0.613 enrichment R.

As for B17, the binding signal was 0.478 enrichment R.

With B18, the binding signal came out at 0.317 enrichment R.

B19: the binding signal came to 0.401 enrichment R.

On to B20, for which the binding signal was found to be 0.283 enrichment R.

Molecule B21 yielded a binding signal of 0.263 enrichment R.

As to B22, the binding signal amounted to 0.832 enrichment R.
